Among the targets are U1‐70K, full-length (human, UniProt P08621); U1‐70K ∆257–266 (human, UniProt P08621, ∆257–266); U1‐70K ∆238–247 (human, UniProt P08621, ∆238–247); U1‐70K ∆366–375 (human, UniProt P08621, ∆366–375).
What all share (test): fluorescence polarisation
For orientation: Polarisation of emitted light reports the rotation of a fluorescent probe.

In assay [1] the target is SRPK1‐phosphorylated U1‐70K (human, UniProt P08621, phosphorylated by SRPK1: 8 to 9 phosphate groups, sites not determined).

B1: Nonphosphorylated SRSF1, Alexa Fluor 488 labelled at T248C (natural protein)
chain: not shown
modifications: Alexa Fluor 488 at T248C
For B1, the Kd (commonly the constant that tells how readily two partners part at equilibrium) in the assay with U1‐70K, full-length stood at 1600 ± 300 nM.

B2: Hyper‐phosphorylated SRSF1 (phosphorylated by Clk1), Alexa Fluor 488 labelled at T248C (natural protein)
chain: not shown
modifications: phosphorylated by Clk1 on arginine–serine and serine–proline repeats (18–22 phosphate groups); Alexa Fluor 488 at T248C
On to B2, for which the Kd in assay [1] amounted to 1500 ± 250 nM; in the assay with U1‐70K ∆257–266, 270 ± 20 nM; with U1‐70K ∆238–247 it was 90 ± 12 nM; with U1‐70K ∆366–375 it was 140 ± 11 nM; in the assay with U1‐70K, full-length, 110 ± 17 nM.

B3: Hypo‐phosphorylated SRSF1 (phosphorylated by SRPK1), Alexa Fluor 488 labelled at T248C (natural protein)
chain: not shown
modifications: phosphorylated by SRPK1 on arginine–serine repeats (9–13 phosphate groups); Alexa Fluor 488 at T248C
The molecule B3 came in with a Kd in the assay with U1‐70K, full-length of 370 ± 40 nM.

The values are drawn from paper PMC11255866 (Protein Science : A Publication of the Protein Society, 2024).
